Laboratory results: the RNAGym collection of RNA variant scans (doi:10.7554/elife.90254)
The source gives no read counts; variants with many changes may rest on few reads.

B1: OR4K15 (parent)
chain: GUUAACGGUCAUAGGCCAUGGAAACUAGGAGCACCAUUUCGCUGCCAGUGAAGAAAUGAACAAAGAAAAUCUGGGCCAGGCAGGCAUCAAAAGAAAUAGUCUUGCGCUCAACCAGAAAGUCUGUAAUCAUUUUAAGGGUA

Variants of: B1
Assay: self-cleavage, relative activity (ratio to wild type); higher = more cleavage; in vitro, sequencing; the parent is a self-cleaving ribozyme

| Variant | self-cleavage |
| --- | --- |
| GUUAACGGUCAUAGGCCAUGGAAAUUAGGAGCACCAUUUCGCUGCCAGUGAAGAAAUGAACAAAGAAAAUCUGGGCCAGGCAGGCAUCAAAGGAAAUAGUCUUGCGCUCGACCAGAAAGUCUGUAAUCAUUUUAAGGGUA [C25U A92G A110G] | 0.03 |
| GUUAACGGUCAUAGGCCAUGGAAACUAGGAGCACCAUUUCGCUGCCUGUGAAGAAAUGAACAAAGAAAAUCUGGGCCAGGCAGGCAUCAAAAGAAAUAGUCUUGCGCUCAACCAGAGAGUCUGUAUUCAUUUUAAGGGUA [A47U A117G A126U] | 0.78 |
| GUUAACGGUCAUAGGCCAUGGUAACUAGGAGCUCCAUUUCGCUGCCAGUGAAGAAAUGAACAGAGAAAAUCUGGGCCAGGCAGGCAUCAAAAGAGGUAGUCUUGCGCUCAACCAGAAAGUCUGUAAUCAUUUUAAGGGUA [A22U A33U A63G A95G A96G] | 1.58 |
| GUUAACGGUCAUAGGCCAUGGAAACUAGGAGCACCACCUCGCUGCCAGUGAAGAGAUGAACAAAGAAAAUCUGGGCCGGGCAGGCAUCGAAAGAAAUAGUCUUGCGCUCAACCAGAAAGUCUGUAAUCAUUUUAAGGGUA [U37C U38C A55G A78G A89G] | 0.2 |
| GUUAACGGUCAUAGGCCAUGGAAACUAGGAGCACCAUUUCGCUGCCAGUGAAGAAAUGAACAAAGAAAAUCUGGGCCAGGCAGGCAUCAAGAGAAAUAGUCCUGCGCUCAGCCAGAAAGUCAGUAAUCAUUUUAAGGGUA [A91G U102C A111G U122A] | 0 |
| GUUAACGGUCAUAGGCCAUGGAAACUAGGAGCACCAUUUCGCUGCCUGUGAAGAAAUGAACAAAGAAAAUCUGGGCCAGGCAGGCACCAAAAGAAAUAGUCUUGCGCUCGACCAGAAAGUCUGUAAUCAUUUUAAGGGUA [A47U U87C A110G] | 0.09 |
| GUUAACGGUCAUAGGCCAUGGAAACUAGGGGCACCAUUUCGCAGCCAGUGGAGAAAUGUACAAAGAAAACCUGGGCCAGGCAGGCAUCAAAAGAAAUAGUCCUGCGCUCAACCAGAAAGUCUGUAAUCAUUUUAUGGGUA [A30G U43A A51G A59U U70C U102C A135U] | 0.74 |
| GUUAACGGUCAUAGGCCAUGGAAGCUAGGAGCACCAUUUCGCUGCCAGUGAAGAAAUGAAUAAAGAAAAUCUGGGCCAGGCGGGCAUCAAAAGAAAUAGUCUUGCGCUCAACCAGAAGGUCUGUAUUCAUUUUAAGGGUA [A24G C61U A82G A118G A126U] | 0.58 |
| GUUAACGGUCAUAGGCCAUGGAGACUAGGAGCACCAUUUCGCUGCCAGUGAAGAAAUGAACAAAGAAGAUCUGGGCCCGGCAGGCAUCAAAAGAAAUAGUCUUGCGCUCAACCAGAAAGUCUGUAAUCAUUCUAAGGGAA [A23G A68G A78C U132C U139A] | 0.29 |
| GUUAACAGUCAUAGGCCAUGGAAACUAGGAGCACCAUUCCGCUGCCAGUGAAGAAAUGAACAAAGAAAAUCUGGGCCAGGCAGGCAUCAAAAGAAAUAGUCUUGCGCUCCACCAGAAAGUCUGUAAUCAUUUUAAGGGUA [G7A U39C A110C] | 0.28 |
| GUUAACGGUCAUAGGCCAUGGGAACUAGGAGCACCAUCUCGCUGCCAGCGAAGAAAUGAACGAAGAAAAUCCGGGCCAGGCAGGCAUCAAAAGAAAUAGUCUUGCGCUCAACCAGAAAGUCUGUAAUCAUUUUAAGGGUA [A22G U38C U49C A62G U72C] | 0.16 |
| GUUAACGGUCAUAGGCCAUGGAAACUAGGAGCACCAUUUCGCUGCCAGUGAAGAAAUGAACAAAGGAAAUCUGGGCCAGGCAGGCAUCAAAAGAAAUAGUCUUGCGCUCAGCCAGAAAGUCUGUAAUCAUUUUAAGGGUG [A66G A111G A140G] | 0.03 |
| GUUAACGGUCAUAGGCCAUGGAAACUAGGAGCACCAUUCCGCCGCCAGUGAAGAAAUGAACAGAGAAAUUCUGGGCCAGGCAGGCAUCAAAAGAAAUAGUCUUGCGCUCAACCAGAAAGUCUGUAAUCGUUUUAAGGGUA [U39C U43C A63G A69U A129G] | 1.96 |
| GUUAACGGUCAUAGGCCAUUGAAGCUAGGAGCGCCAUUUCGCUGCCAGUGAAGAAAUGAGCAAAGAAAAUCUGGGCCAGGCAGGCAUCAAAAGAAAUUGUCUUGCGCUCAACCAGAAAGUCUGUAAUCAUUUUAAGGGUA [G20U A24G A33G A60G A98U] | 0.74 |
| GUUAACGGUCAUAGGCCAUGGAAACUAGGAGCACCAUUUCGCUGCCAGCGAAGAAAUGAACAAAGAAAAUCUGGGCCAGGCAGGCAUCAAAAGAAAUAGUCCUGCGCACAACCAGAGAGUCUGUAAUCAUUUUAAGGGUA [U49C U102C U108A A117G] | 0.01 |
| GCUAACGGUCAUAGGCCAUGGAAACUAGGAGCACCAUUCCGCUGCCAGUGAAGAAAUGAACAAAGAAAAUCUGGGCCAGGCAGGCAUCAGAAGAAAUAGUCUUGCGCUCAACCAGAAAGUCUGUAAUCAUUUUAAGGGUA [U2C U39C A90G] | 0.25 |
| GUUAACGGUCAUAGGCCGUGGAGACUAGGAGCACCAUCUCGCUGCCAGUGAAGAAAUGAACAAAGAAGAUCUGGGCCAGGCAGGCAUCAAAAGAAAUAGUCUUGCGCUCAACCAGAAAGUCUGUAAUCAUUUUAAGGGUA [A18G A23G U38C A68G] | 0.78 |
| GUUAACGGUCAUAGGCCAUGGAAACUAGGAGCACCAUUUCGCUGCCAGUGAAGAAAUGAACGAAGGAAAUCUGGGCCAGGCAGGCAUCAAAAGAAAUAGUCUUGCGCUCAACCAGAAAGUCUGUAAUCAUUUUAAGGGUG [A62G A66G A140G] | 1.59 |
| GCUAACGGUCAUAGGCCAUGGAAACUAGGAGCACCAUUUCGCUGCCAGUGAAGAAAUGAACAAAGAAAAUCUGGGCCAGGCAGGCAUCAAAAGAAAUAGUCUUGCGCUCAACCAGAAAGUCUGUAAUCAUUUUAAGGGCC [U2C U139C A140C] | 0.65 |
| GUUAGCGGUCAUAGGCCAUGGAAACUAGGAGCACCAUUUCGCUGCCAGUGAAGAAACGAACAAAGAAAAUCCGGGCCAGGCAGGCAUCAAAAGAAAUAGUCUUGCGCUCAACCAGAAAGUCUGUAAUCAUUUUAAGGGUA [A5G U57C U72C] | 0.18 |
| GUUAACGGUCAUAGGCCAUGGGAACUAGGAGCACCAUUUCGCUGCCAGUGAAGAAAUGAACAACGAAAAUCUGGGCCCGGCAGGCAUCAAAAGAAAUAGUCUUGCGCUCAACCAGAAAGUCAGUAAUCAUUUUAAGGGUA [A22G A64C A78C U122A] | 0.37 |

| Variant | self-cleavage |
| --- | --- |
| GUUAACGGUCAUAGGCCGUGGUAACUAGGAGCACUAUUUCGCAGCCAGUGAAGAAAUGAACAAAGAAAAUCUGGGCCAGGCAGGCAUCAAAAGAAAUAGUCUUGCGCUCAACCAGAAAGUCUGUAAUCAUUUUAAGGGUA [A18G A22U C35U U43A] | 1.13 |
| GUUGACGGUCAUAGGCCAUGGAAACUAGGAGCACCAUUUCGCUGCCAGUGAAGAAAUGAACAAAGAAAAUCUGGGCCAGGCAGGCAUCAAAAGAAAUAGUCUUGCGCUCCACCAGAAAGUCUGUAACCAUUUUAAGGGUA [A4G A110C U127C] | 0.31 |
| GAUAACGGUCAUAGGCCAUGGAAACUAGGAGCACCAUUUCGCCGCCAGUGAAGAAAUGAACAAAGAAAAUCUGGGCCAGGCAGGCAUCAAAAGAAAUAGUCUUGCGCUCAACCAGAAAGUCUGUAACCAUUUUAAGGGUU [U2A U43C U127C A140U] | 0.69 |
| GUUAACGGUCAUAGGCCAUGGAAACUAGGAGCACCAUUUCGCUGCCAGUGAAGAAAUGAACAAAGAAAAUCUGGGCCAGGCAGGCAUCAAAAGGAAUAGUCUUGCGCUCAACCAGAGAGUCUGUAAUCAUUCUAAGGGUA [A94G A117G U132C] | 2.18 |
| GUUAACGGUCAUAGGCCAUGGAAACUAGGAGCACCAUUUCGCUGCCAGUGAAGAGAUGAACAAAGAAAAUCUGGGCCAGGCAGGCAUCAAAAGAAAUAGUCUUGCGUUCAACCAGAAAGUCUGUAGUCAUUUUAAGGGUA [A55G C107U A126G] | 0.02 |
| GUUAACGGUCAUAGGCCAUGGAAACUAGGAGCACCAUUUCGCUGCCAGUGAAGAAGUGAGCAAAGAAAAUCAGGGCCAGGCAGGCAUCAAAAGAAAUAGUCUUGCGCUCAACCAGAAAGUCUGUAUUCAUUUUAAGGGUA [A56G A60G U72A A126U] | 0.18 |
| GUUAACAGUCAUAGGCCAUGGAUACUAGGAGCACCAAUUCGCUGCCAGUGAAGAAAUGAACAAAGAAAAUCUGGGCCAGGCAGGCAUCAAAAGAAAUAGUCUUGCGCUCAACCAGAAAGUCUGUAAUCAUUUUAAGGGUA [G7A A23U U37A] | 1.22 |
| GUUAACGGUCAUAGGCCAUGGAAACUAGGAGCACCAUUUCGCUGCCAGUGAAGAAAUGAACAAAGAAUAUCUGGGCCAGGCAGGCAUCAAGAGAAAUAGUCCUGCGCUCAACCAGAAAGUCUGUAAUCAUUUUAAGGGUA [A68U A91G U102C] | 1.44 |
| GUUAACGGUCAUAGGCCAUGGAAACUAGGAGCACCAUUUCGCUGCCGGUGAAGAAAUGAACAAGGUAGAUCUGGGCCAGGCAGGCAUCAAAAGAAAUAGUCUUGCGCUCAACCAGAAAGUCUGUAAUCAUCUUAAGGGUA [A47G A64G A66U A68G U131C] | 0.12 |
| GUUAGCGGUCAUAGGCCAUGGAAACUAGGAGCACCAUUUCGCUGCCUGUGAAGAAAUGAACAAAGAGAAUCUGGGCCGGGCAGGCCUCAAAGGAAAUAGUCUUGCGCUCAACCAGAAAGUCUGUAAUCAUUUUAAGGGUG [A5G A47U A67G A78G A86C A92G A140G] | 0.13 |
| GUUAACGGUCAUGGGCCAUGGAGACUAGGAGCACCAUUUCGCUGCCAGUGAAGAAAUGAACAAAGAAAAUCUGGGCCAGGCAGGCAUCAAAAGAAAUAGCCUUGCGCUCAACCAGAAAGUCUGUAAUCAUUUUAAGGGUA [A13G A23G U100C] | 1.29 |
| GUUAACGGUCAUAGGCCAUGGAGACUAGGAGCACCAUUUCGCUGCCAGUGAAGAAAUGAACAAAGGAAAUCUGGGCCAGUCAGGCAUCAAAAGAAAUAGCCUUGCGCUCAACCAGAAAGUCUGCAAUCAUUUUAAGGGUA [A23G A66G G80U U100C U124C] | 0.11 |
| GUUAACGGUCAUAGGCCAUGGAUACUAGGAGCACCAUUUCGCUGCCAGUGAAGAAAUGGGCAAAGAAAAUCUGGGCCAGGCAGGCAUCAAAAGAAAUAGUCUUGCGCUCAACCUGAAAGUCUGUAAUCAUUUUAAGGGUA [A23U A59G A60G A114U] | 0.1 |
| GUUAACAGUCAUAGGCCAUGGAAACUAGGAGCACCAUUGCGCUGCCAGAGAAGAAACGAACAAAGAAAAUCUGGGCCAGGCAGGCAUCAAAAGAAAUAGUCUUGCGCUCAACCAGAAAGUCUGUAAUCAUUUUAAGGGUA [G7A U39G U49A U57C] | 0.8 |
| GUUAACGGUCAUAGGCCAUGGAAUCUAGGAGCACCAUUUCGCUGCCAGUGAGGAAAUGAACAAAGAAAAUCUGGGCCAGGCAGGCAUCAAAAGAAAUAGUCUUGCGCUCAACCAGAAGGUCUGUAAUCAUUUUAAGGGUA [A24U A52G A118G] | 0.84 |
| GUUAACGGUCAUAGGCCACGGAAACUAGGAGCACCAUUUCGCUGCCAGUGAAGAAAUGAACAAAGAAAACCUGGGCCAGGCAGGCAUCAAAAGAGAUAGUCUUGCGCUCAGCCAGAAAGUCUGUAAUCAUUUUAAGGGUA [U19C U70C A95G A111G] | 0.01 |
| GUUAACGGUCAUAAGCCAUGGAAACUAGGAGCACCAUUUCGCUGCCAGUGAAGAAAUGGACGAAGAAAAUCUGGGCCAGGCAGGCAUCAAAGGAAAUAGUCUUGCGCUCAACCAGAAAGUCUGUAAUCAUUUUGAGGGUA [G14A A59G A62G A92G A134G] | 0.96 |
| GUCAGCGGUCAUAGGCCGUGGAGACUAGGAGCACCAUUUCGCUGCUAGUGAAGAAAUGAACAAAGAAAAUCUGGGCCAGGCAGGCAUCAAAAGAAAUAGUCUUGCGGUCAACCAGAAAGUCUGUAAUCAUUUUAAGGGUA [U3C A5G A18G A23G C46U C107G] | 0.08 |
| GUUAACGGUCAUAGGCCAUGGAGACUAGGAGCACCAUUUCGCUGCCAGUGAAGAAAUGAACAGAGAAAAUCUGGGCCGGGCAGGCAUCAGAAGAAAUAGUCUUGCGCUCAACCAGAAAGUCUGUAAUCAUUUUAAGGGUA [A23G A63G A78G A90G] | 0.36 |
| GUUAACGGUCAUAGGCCAUGGAAACUAGGAGCGCCAUUUCGCUGCCAGUGAAGAAAUGAACAAAGAAAAUCUGGGCCAGGCAGGCAUCAAAAGAAAUAGUCGUGCGCUCAACCAGAAGGUCUGUAAUCAUUUUAAGGGUA [A33G U102G A118G] | 0.04 |
